# Laboratory results reported in PMC9911399, “Two distinct binding modes provide the RNA-binding protein RbFox with extraordinary sequence specificity”.
# Substitutions are numbered along the chain they refer to; changes in the protein carry UniProt numbers. This is one part of the list.
# B1: GGCGCUA (DNA:RNA)
# RNA: GGGAGACCGGAAUUCAGAUUGUCCGGCGCUAUUAAAUCCCGUCGUAGCCACCA
# DNA 1: CAATCTGAATTCCGGTCTCCC
# DNA 2: TGGTGGCTACGACGGGATT
# B2: AUCGGAG (DNA:RNA)
# RNA: B1 RNA with G25A, G26U, C29G, U30A, A31G
# DNA 1: CAATCTGAATTCCGGTCTCCC
# DNA 2: TGGTGGCTACGACGGGATT
# B3: AAGCUAC (DNA:RNA)
# RNA: GGGAGACCGGAAUUCAGAUUGUCCAAGCUACUUAAAUCCCGUCGUAGCCACCA
# DNA 1: CAATCTGAATTCCGGTCTCCC
# DNA 2: TGGTGGCTACGACGGGATT
# B4: AUGUACG (DNA:RNA)
# RNA: B3 RNA with A26U, C28U, U29A, A30C, C31G
# DNA 1: CAATCTGAATTCCGGTCTCCC
# DNA 2: TGGTGGCTACGACGGGATT
# B5: GGCGAUA (DNA:RNA)
# RNA: B1 RNA with C29A
# DNA 1: CAATCTGAATTCCGGTCTCCC
# DNA 2: TGGTGGCTACGACGGGATT
# B6: AAGUAUC (DNA:RNA)
# RNA: B3 RNA with C28U, U29A, A30U
# DNA 1: CAATCTGAATTCCGGTCTCCC
# DNA 2: TGGTGGCTACGACGGGATT
# B7: AACAGGC (DNA:RNA)
# RNA: B3 RNA with G27C, C28A, U29G, A30G
# DNA 1: CAATCTGAATTCCGGTCTCCC
# DNA 2: TGGTGGCTACGACGGGATT
# B8: GGAGCGU (DNA:RNA)
# RNA: B1 RNA with C27A, U30G, A31U
# DNA 1: CAATCTGAATTCCGGTCTCCC
# DNA 2: TGGTGGCTACGACGGGATT
# B9: CACAAAU (DNA:RNA)
# RNA: B3 RNA with A25C, G27C, C28A, U29A, C31U
# DNA 1: CAATCTGAATTCCGGTCTCCC
# DNA 2: TGGTGGCTACGACGGGATT
# B10: AGAGGUG (DNA:RNA)
# RNA: B1 RNA with G25A, C27A, C29G, A31G
# DNA 1: CAATCTGAATTCCGGTCTCCC
# DNA 2: TGGTGGCTACGACGGGATT
# B11: CUUGGGU (DNA:RNA)
# RNA: B1 RNA with G25C, G26U, C27U, C29G, U30G, A31U
# DNA 1: CAATCTGAATTCCGGTCTCCC
# DNA 2: TGGTGGCTACGACGGGATT
# B12: CAGAACU (DNA:RNA)
# RNA: B3 RNA with A25C, C28A, U29A, A30C, C31U
# DNA 1: CAATCTGAATTCCGGTCTCCC
# DNA 2: TGGTGGCTACGACGGGATT
# B13: UCAUUGG (DNA:RNA)
# RNA: B3 RNA with A25U, A26C, G27A, C28U, A30G, C31G
# DNA 1: CAATCTGAATTCCGGTCTCCC
# DNA 2: TGGTGGCTACGACGGGATT
# B14: CGCGGCA (DNA:RNA)
# RNA: B1 RNA with G25C, C29G, U30C
# DNA 1: CAATCTGAATTCCGGTCTCCC
# DNA 2: TGGTGGCTACGACGGGATT
# B15: AGUCAGU (DNA:RNA)
# RNA: B3 RNA with A26G, G27U, U29A, A30G, C31U
# DNA 1: CAATCTGAATTCCGGTCTCCC
# DNA 2: TGGTGGCTACGACGGGATT
# B16: CAACCCU (DNA:RNA)
# RNA: B3 RNA with A25C, G27A, U29C, A30C, C31U
# DNA 1: CAATCTGAATTCCGGTCTCCC
# DNA 2: TGGTGGCTACGACGGGATT
# B17: CGUCAUG (DNA:RNA)
# RNA: B1 RNA with G25C, C27U, G28C, C29A, A31G
# DNA 1: CAATCTGAATTCCGGTCTCCC
# DNA 2: TGGTGGCTACGACGGGATT
# B18: CUCUACA (DNA:RNA)
# RNA: B1 RNA with G25C, G26U, G28U, C29A, U30C
# DNA 1: CAATCTGAATTCCGGTCTCCC
# DNA 2: TGGTGGCTACGACGGGATT
# B19: ACCUAGC (DNA:RNA)
# RNA: B3 RNA with A26C, G27C, C28U, U29A, A30G
# DNA 1: CAATCTGAATTCCGGTCTCCC
# DNA 2: TGGTGGCTACGACGGGATT
# B20: GCAAGUG (DNA:RNA)
# RNA: B1 RNA with G26C, C27A, G28A, C29G, A31G
# DNA 1: CAATCTGAATTCCGGTCTCCC
# DNA 2: TGGTGGCTACGACGGGATT
# Target: T1, RBFOX1 RRM RbFoxmut (Fox-RRM*) (Homo sapiens, UniProt Q9NWB1 109-208, R118D;E147R;N151S;E152T)
# T1 sequence: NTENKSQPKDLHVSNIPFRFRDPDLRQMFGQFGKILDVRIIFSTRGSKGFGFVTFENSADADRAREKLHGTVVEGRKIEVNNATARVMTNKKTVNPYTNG
# Experiment: EMSA; HiTS-Eq, 1 nM pool, 10 min; buffer printed only for the single-RNA assays: 10 mM Tris pH 7.5, 150 mM NaCl, 3.4 mM EDTA, 0.001% NP-40, 30 C
# Settings: tags: His6 N-terminal (pET28a); label: 5' 32P
# How it was run: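 These values rest on relative association constants, computed from read-count changes of each RNA species versus the control reaction and normalised to the cognate motif. Reads came from free RNA recovered by 8% native PAGE after purified RbFox RRM (wild type or mutant) at increasing concentrations was equilibrated for 10 min in 50 µL with 1 nM of a 5′-radiolabelled pool with 7 randomized nucleotides and DNA-annealed flanks.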
row,Binder,binding signal
1,B1,0.0705 KA relative to UGCAUGU
2,B2,0.132 KA relative to UGCAUGU
3,B3,0.126 KA relative to UGCAUGU
4,B4,0.322 KA relative to UGCAUGU
5,B5,0.0912 KA relative to UGCAUGU
6,B6,0.151 KA relative to UGCAUGU
7,B7,0.0663 KA relative to UGCAUGU
8,B8,0.124 KA relative to UGCAUGU
9,B9,0.063 KA relative to UGCAUGU
10,B10,0.134 KA relative to UGCAUGU
11,B11,0.115 KA relative to UGCAUGU
12,B12,0.111 KA relative to UGCAUGU
13,B13,0.106 KA relative to UGCAUGU
14,B14,0.132 KA relative to UGCAUGU
15,B15,0.0793 KA relative to UGCAUGU
16,B16,0.102 KA relative to UGCAUGU
17,B17,0.275 KA relative to UGCAUGU
18,B18,0.124 KA relative to UGCAUGU
19,B19,0.104 KA relative to UGCAUGU
20,B20,0.122 KA relative to UGCAUGU
